# Laboratory results: PMC4336329 (PLoS ONE, 2015)
# Out of some 310,000 compounds screened, about 2,200 (0.71%) showed an effect of 50% or more. The effect is printed as a negative number. Some of the results follow.
# Target: human ether-à-go-go-related gene (hERG) potassium channel (human, UniProt Q12809)
# Experiment: primary screen, population patch clamp on CHO cells stably expressing hERG
# human ether-à-go-go-related gene (hERG) potassium channel, sequence (Q12809 whole entry, looked up): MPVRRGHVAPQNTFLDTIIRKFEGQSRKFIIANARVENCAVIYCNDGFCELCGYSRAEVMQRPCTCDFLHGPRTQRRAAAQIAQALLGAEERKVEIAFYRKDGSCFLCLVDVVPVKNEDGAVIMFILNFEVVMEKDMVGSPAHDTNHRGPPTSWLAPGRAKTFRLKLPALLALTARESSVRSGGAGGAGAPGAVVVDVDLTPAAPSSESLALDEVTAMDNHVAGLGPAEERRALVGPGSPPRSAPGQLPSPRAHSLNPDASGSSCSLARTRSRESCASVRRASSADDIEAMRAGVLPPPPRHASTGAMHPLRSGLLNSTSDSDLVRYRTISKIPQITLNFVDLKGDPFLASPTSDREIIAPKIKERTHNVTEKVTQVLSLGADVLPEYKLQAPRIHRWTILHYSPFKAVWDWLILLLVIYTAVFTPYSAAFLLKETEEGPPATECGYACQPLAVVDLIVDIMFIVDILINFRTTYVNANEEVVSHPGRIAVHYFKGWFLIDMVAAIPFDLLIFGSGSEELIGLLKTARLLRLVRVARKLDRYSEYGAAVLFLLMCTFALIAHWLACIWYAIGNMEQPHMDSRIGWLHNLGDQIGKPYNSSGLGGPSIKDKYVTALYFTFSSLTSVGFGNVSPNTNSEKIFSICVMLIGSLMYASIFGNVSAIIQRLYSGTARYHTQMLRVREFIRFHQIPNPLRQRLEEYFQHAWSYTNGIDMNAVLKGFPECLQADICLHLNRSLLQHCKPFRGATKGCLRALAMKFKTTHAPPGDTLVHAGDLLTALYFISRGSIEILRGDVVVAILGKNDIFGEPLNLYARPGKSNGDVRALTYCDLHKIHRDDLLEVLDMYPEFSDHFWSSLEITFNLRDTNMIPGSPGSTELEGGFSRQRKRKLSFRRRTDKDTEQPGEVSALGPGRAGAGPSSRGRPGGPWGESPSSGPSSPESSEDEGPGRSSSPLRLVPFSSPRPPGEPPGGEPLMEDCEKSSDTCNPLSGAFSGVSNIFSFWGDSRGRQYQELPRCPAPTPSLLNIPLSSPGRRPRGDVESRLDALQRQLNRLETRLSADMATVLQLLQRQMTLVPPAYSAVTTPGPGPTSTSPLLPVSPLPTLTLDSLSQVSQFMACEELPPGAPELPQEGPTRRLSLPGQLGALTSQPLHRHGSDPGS
row,Structure (SMILES),"hERG current change (%, negative = inhibition) at 1uM"
1,CCOc1ccc(C(=O)c2cnc3ccccc3c2N2CCN(CC)CC2)cc1,-43.9%
2,CCc1ccccc1NC(=O)CNC(=O)c1ccccc1OCc1c(C)noc1C,-0.713%
3,CCCc1cc(=O)oc2cc(C)cc(OCC(=O)NCc3cccnc3)c12,-6.08%
4,CCOc1cccc2cc(C(=O)N3CCc4ccccc4C3)c(=O)oc12,-7.46%
5,COCCN(C(=O)COC(=O)CCc1ccccc1OC)c1c(N)n(Cc2ccccc2)c(=O)[nH]c1=O,7.64%
6,Nc1ccccc1NC1=CC(=O)CC(c2ccco2)C1 (stereo not drawn),15.3%
7,O=C(Nc1nnc(S(=O)(=O)N2CCCCCC2)s1)c1ccc(Cl)cc1,18.9%
8,CC(=O)c1ccc(NC(=O)CSc2ccc(-c3sc(C)nc3C)nn2)cc1,11.2%
9,COc1cc(OC)c(C2=NOC(C(=O)N3CCCc4ccccc43)C2)cc1Cl (stereo not drawn),2.13%
10,N#Cc1c2c(c(NCCN3CCOCC3)n3c1nc1ccccc13)CCCC2,-5.19%
11,CCOc1ccc(NC(=O)CN2CCN(C(=O)C3CCCO3)CC2)cc1 (stereo not drawn),-14.5%
12,CCN(CC)c1cc(C)c2cc(NC(=O)c3ccc(Br)o3)ccc2n1,-11.2%
13,CC(C)=CCN1CCN(Cc2nc(-c3ccccc3)cs2)CC1CCO (stereo not drawn),-3.07%
14,O=C(NCc1ccco1)C1CCN(S(=O)(=O)c2cccc3cccnc23)CC1,4.47%
15,COCCN(C(=O)CC1OC(=O)c2ccccc21)c1c(N)n(Cc2ccccc2)c(=O)[nH]c1=O (stereo not drawn),8.74%
16,COc1nccnc1NS(=O)(=O)c1ccc(N=Cc2c(C)[nH]n(-c3ccc(Cl)cc3)c2=O)cc1,18.2%
17,COc1ccc(CSCC(=O)N/N=C/c2ccc(OCC(=O)NCc3ccco3)cc2)cc1,9.37%
18,Cc1ccc(C)c(N2C(=N)S/C(=C\c3ccc(-c4ccccc4C(=O)O)o3)C2=O)c1,10.7%
19,CSc1ccc(CNCCCSc2ncccn2)cc1.Cl,-2.83%
20,O=C(N/C=C/n1cnc2cc(C(F)(F)F)ccc21)c1ccccc1,3.24%
21,CCOC(=O)N1CCC(N(CCN(C)C)C(=S)Nc2cc(C)cc(C)c2)CC1,4.08%
22,COc1ccc(Cl)cc1S(=O)(=O)NCc1cccs1,2.75%
23,COc1ccccc1-n1cnnc1SC1CCOC1=O (stereo not drawn),13%

row,Structure (SMILES),"hERG current change (%, negative = inhibition) at 1uM"
1,CCOc1ccc(CN(C(=O)c2ccccn2)c2ccc(OC)c(Cl)c2)cc1,14.6%
2,COc1ccc(NC(=O)COC(=O)C2=COCCO2)cc1OC,2.99%
3,O=C(O)CCCCCCCCc1cn(Cc2ccc(C(=O)c3ccccc3)cc2)nn1,17.7%
4,COC(=O)N1CN(C(=O)OC)CN(C(=O)OC)C1,9.46%
5,COc1cccc2sc(=NC(=O)CS(=O)(=O)c3ccc(F)cc3)n(C)c12,8.13%
6,CCC(CC)N1CCN(C(=O)Cc2ccccc2)CC1.O=C(O)C(=O)O,8.76%
7,CCOC(=O)c1[nH]c(=O)[nH]c1CSCCO,11.4%
8,Cc1ccc(C)c(-c2csc(N)c2C(=O)OC(C)C)c1,11.1%
9,CCC(C(=O)Nc1ccc2c(c1)OCCO2)c1ccccc1 (stereo not drawn),18.8%
10,COc1cc(CC(=O)OCC(=O)Nc2ncc(Cl)cc2Cl)cc(OC)c1OC,11%
11,COc1ccc(NC(=O)C23CCC(C2)C(C)(C)C3=O)cc1 (stereo not drawn),9.76%
12,Cc1ccc[n+](-c2nc([O-])sc2/C=N/Nc2ccc([N+](=O)[O-])cc2)c1,10.7%
13,COc1ccc(-n2nc3c(c2NC(C)=O)CS(=O)(=O)C3)cc1,20.9%
14,COc1cccc(/C=C2\SC(=S)N(CCCC(=O)NC3=NCCS3)C2=O)c1,12.6%
15,CCc1ccccc1NC(=O)CN1CCN(CC(=O)Nc2cc(C)ccc2OC)CC1,14.3%
16,COc1cc(/C=C(\C#N)c2nc3ccccc3[nH]2)cc(OC)c1O,16%
17,CN1CCN(C(=S)C(=O)NCc2ccccc2)CC1,6.25%
18,CC(=O)c1cccc(CN2CCCC(N3CCN(c4ccccc4F)CC3)C2)c1 (stereo not drawn),4.79%
19,O=C(O)c1cccc(NC(=S)NC(=O)c2cccc(OCc3ccccc3)c2)c1,22.6%
20,CN(c1ncc(C(F)(F)F)cc1Cl)n1cc(C(=O)O)c2ccccc2c1=O,13.5%
21,CC(=O)Nc1ccc(NC(=O)C(C)OC(=O)CCCN=C2NS(=O)(=O)c3ccccc32)cc1 (stereo not drawn),8.26%
22,COc1ccc(N(CN2C(=O)C3CC=CCC3C2=O)C(=O)c2ccco2)cc1 (stereo not drawn),6.46%
23,CCOC(=O)CSC1=N/C(=C\c2ccc(OC)c(OC)c2)C(=O)N1C,-48.2%

row,Structure (SMILES),"hERG current change (%, negative = inhibition) at 1uM"
1,COc1cccc(/C=C2\SC(=S)N(NS(=O)(=O)c3ccccc3)C2=O)c1OC,-0.0447%
2,Cc1cc(NC(=O)CCC(=O)N(CC(C)C)C(C(=O)NC(C)(C)C)c2ccccc2Cl)no1 (stereo not drawn),13.4%
3,O=C(NCCCN1CCOCC1)C(=O)NCC1OCCN1S(=O)(=O)c1ccc(Br)cc1 (stereo not drawn),8.44%
4,CCOC(=O)C1CCN(C(=O)C(=O)c2cn(CC(=O)N3CCCCCC3)c3ccccc23)CC1,9.27%
5,CN(C)/C=C\C(=C/C(=O)C(F)(F)F)Nc1ccccc1Oc1ccccc1,0.691%
6,COc1ccccc1CCC(=O)NNC(=O)c1ccncc1,16.6%
7,CC(C)N1C(=O)CC(Nc2ccc(N3CCOCC3)cc2)C1=O (stereo not drawn),-0.972%
8,O=C(NCCCc1ccccc1)c1ccc([N+](=O)[O-])cc1Cl,-10.6%
9,COCCSc1ncnc2c1oc1nc3c(cc12)COC(C)(C)C3,9.02%
10,CC(C)(C)OC(=O)N1CCN(C(=O)Nc2ccc3c(c2)OCCO3)CC1,8.68%
11,COc1cccc(NC(=O)Cn2c(-c3cncs3)nc3ccccc32)c1,0.466%
12,CC(C)(CO)CNC(=O)CCc1nnc(CCCc2ccccc2)o1,6.17%
13,CSC1=NCCN1S(=O)(=O)c1ccccc1,3.71%
14,O=S(=O)(Oc1ccccc1N1CCCCC1)c1ccccc1,6.19%
15,CCCCn1c(N)c(N(CC)C(=O)c2cnc(C)cn2)c(=O)[nH]c1=O,9.4%
16,CC(O)Cc1cn(CC(=O)N2CCN(C(=O)OC(C)(C)C)CC2)nn1 (stereo not drawn),17.6%
17,CC(=O)NC(c1ccccc1)c1c(O)ccc2ccccc12 (stereo not drawn),7.34%
18,COc1ccc(-c2cc(C(F)(F)F)n3nc(C(=O)O)cc3n2)cc1OC,0.647%
19,O=C(CCC1CCCC1)N1CCN(C(=O)COc2ccccc2)CC1,-8.68%
20,COc1ccc(NC2CCCN(C(=O)CSc3ccccn3)C2)cc1OC (stereo not drawn),10.3%
21,COC(=O)c1ccccc1NC(=S)NC(=O)CC(C)C,3.33%
22,CCOCC(=O)Nc1cc(C(=O)Nc2ccc(F)cc2)ccc1Cl,29.4%
23,O=C(Nc1cccs1)Nc1ccccc1Cl,6.1%

row,Structure (SMILES),"hERG current change (%, negative = inhibition) at 1uM"
1,Cn1c(N)c(C(=O)CSc2nc(N)cc(=O)[nH]2)c(=O)n(C)c1=O,8.36%
2,CCN1C(=O)c2ccc(-c3nc4ccccc4c(=O)o3)cc2C1=O,5.78%
3,NC(=O)C1Cc2ccccc2CN1S(=O)(=O)c1ccc(Cl)s1 (stereo not drawn),8.63%
4,O=C(Nc1ccccc1F)c1oc2ccccc2c1NC(=O)C1CC1,12.4%
5,C=CCn1c(=O)c2c(nc3n2CCCN3Cc2ccccc2)n(C)c1=O,8.28%
6,CC(=O)Nc1ccc2c(c1)N(C(C)=O)c1ccccc1CC2,17.6%
7,Cc1ccc(C)c(NC(=O)C2CC(=O)N(C(C)C)C2)c1 (stereo not drawn),2.5%
8,CCOC(=O)C1=C(CSc2nc(CC)c(C)cc2C#N)OC(N)=C(C#N)C1c1ccc(OC)cc1 (stereo not drawn),7.38%
9,O=C(NC1CCCCC1)c1ccc(N2CCCC2=O)cc1,14.9%
10,O=C(Nc1ccc(Br)cc1F)C1CCCO1 (stereo not drawn),1.99%
11,CCCCP(=O)(O)c1ccccc1,4.72%
12,c1ccc2c(c1)OCCOCCOCCOCCOc1ccccc1OCCOCCOCCO2,-11.5%
13,CC1=C(C(=O)OC2CCCCC2)C(c2ccccc2Br)NC(=O)N1 (stereo not drawn),17.6%
14,CCCc1cc(C(=O)N2CCC(n3nccc3NC(=O)c3ccc(OC)cc3)CC2)no1,-3.61%
15,COc1cc(C)c(Cl)cc1S(=O)(=O)n1cnc(C)c1,6.71%
16,NS(=O)(=O)c1ccc(N=Cc2c(O)c3ccccc3oc2=O)cc1,5.55%
17,Cn1nnnc1SCc1cccc2ccccc12,21.5%
18,COc1cc(/C=C/c2ccc3cccc(OC)c3n2)c(O)c([N+](=O)[O-])c1,9.37%
19,Cc1[nH]c2ccccc2c1SCCN,7.37%
20,CN(c1ccc(Br)cc1)S(=O)(=O)c1ccc2[nH]cc(C(=O)NCCN3CCOCC3)c(=O)c2c1,-1.61%
21,CC(=O)N[C@@H](Cc1c[nH]c2ccccc12)C(=O)OCC(=O)NCc1ccc2c(c1)OCO2,5.97%
